From the supplement of paper PMC7125110
± gives the standard error. Variants at the background level are over-represented here.

B1: glmS ribozyme (parent)
chain: AUAAAAGCGCCAGAACUACAGAAAUGUAGUUGACGAGGAGGAGGUUUAUCGAAUUUUCGGCGGAUGCCUCCAAA

Columns and labels:
Conditions in all cases: with glucosamine-6-phosphate
[1] = variants of: B1; assay: self-cleavage kobs at 40 uM GlcN6P; higher = faster cleavage; RNA array
Outline: (§1)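 E. coli RNA polymerase transcribed barcoded ribozyme variants in situ on sequenced MiSeq chips, which were tracked via a hybridised Cy3 probe at 37 °C. Tiles were imaged over ~14 h after glucosamine-6-phosphate (40 μM to 10 mM) in HEPES/KCl/Mg(OAc)2 buffer was flowed in. Normalised per-tile medians were fit to one- or two-exponential decays for kobs, and kcat and KM came from weighted Michaelis–Menten fits.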

[2] = variants of: B1; assay: self-cleavage kobs at 160 uM GlcN6P; higher = faster cleavage; RNA array
Outline: as §1

[3] = variants of: B1; assay: self-cleavage kobs at 2500 uM GlcN6P; higher = faster cleavage; RNA array
Outline: as §1

[4] = variants of: B1; assay: self-cleavage kobs at 10000 uM GlcN6P; higher = faster cleavage; RNA array
Outline: as §1

[5] = variants of: B1; assay: self-cleavage kobs at 640 uM GlcN6P; higher = faster cleavage; RNA array
Outline: as §1

Variant | self-cleavage kobs at 40 uM GlcN6P [1] [s⁻¹] | self-cleavage kobs at 160 uM GlcN6P [2] [s⁻¹] | self-cleavage kobs at 2500 uM GlcN6P [3] [s⁻¹] | self-cleavage kobs at 10000 uM GlcN6P [4] [s⁻¹] | self-cleavage kobs at 640 uM GlcN6P [5] [s⁻¹]
G41A C67G | < 1e-05 | < 1e-05 | – | – | –
G44A U46A G62C | < 1e-05 | – | < 1e-05 | < 1e-05 | –
A42U G63C C70A | < 1e-05 | – | – | – | < 1e-05
A36C G41C U69A | < 1e-05 | – | – | – | –
G37C G41U | < 1e-05 | < 1e-05 | < 1e-05 | < 1e-05 | < 1e-05
A42C C70A | < 1e-05 | < 1e-05 | < 1e-05 | < 1e-05 | < 1e-05
G38C G59C | < 1e-05 | < 1e-05 | < 1e-05 | < 1e-05 | < 1e-05
A36U G63C | < 1e-05 | – | – | – | < 1e-05
G41A A42C A52G | < 1e-05 | – | – | – | –
G37U U56C C71G | < 1e-05 | – | – | – | –
G38U U49G | < 1e-05 | – | – | < 1e-05 | –
G43U A53C | < 1e-05 | < 1e-05 | – | – | –
G41A G62U U65G | < 1e-05 | – | – | < 1e-05 | –
G43U U45A | < 1e-05 | < 1e-05 | – | – | –
G38U C50A C67G | 8.67e-05 ± 3.1e-05 | – | – | – | –
A39C U46C | 3.41e-05 ± 9.8e-06 | 0.000168 ± 3.9e-05 | 0.00122 ± 0.00023 | 0.00206 ± 0.00025 | 0.000488 ± 6.6e-05
A42C C61G | < 1e-05 | < 1e-05 | < 1e-05 | – | < 1e-05
A42G U46G G59A | < 1e-05 | – | < 1e-05 | – | –
G37U G44C A52G | < 1e-05 | – | – | – | –
G43A U65G | < 1e-05 | < 1e-05 | – | – | < 1e-05
G43A U69C C70G | < 1e-05 | – | – | – | –
A36G | < 1e-05 | < 1e-05 | – | – | –
G40A A42G | 0.000182 ± 2.4e-05 | 0.00046 ± 9.7e-05 | 0.00363 ± 0.00075 | 0.00783 ± 0.0018 | 0.00157 ± 0.00024
A36C G59U C68G | < 1e-05 | – | – | – | –
A42G A52U A53U U56A | < 1e-05 | – | – | – | –

Variant | self-cleavage kobs at 40 uM GlcN6P [1] [s⁻¹] | self-cleavage kobs at 160 uM GlcN6P [2] [s⁻¹] | self-cleavage kobs at 2500 uM GlcN6P [3] [s⁻¹] | self-cleavage kobs at 10000 uM GlcN6P [4] [s⁻¹] | self-cleavage kobs at 640 uM GlcN6P [5] [s⁻¹]
A39U U47A G51U C67U | < 1e-05 | – | – | – | –
G37C C68A | < 1e-05 | – | – | – | –
G37C A39C U45C | < 1e-05 | – | – | < 1e-05 | –
G40A G41C C61G | < 1e-05 | – | – | – | < 1e-05
A36G C71U | < 1e-05 | < 1e-05 | – | – | –
A39G C61A | < 1e-05 | – | < 1e-05 | < 1e-05 | < 1e-05
G38A G44A | < 1e-05 | < 1e-05 | < 1e-05 | < 1e-05 | < 1e-05
G41A U46A | 3.02e-05 ± 1.4e-05 | 4.5e-05 ± 1.2e-05 | 0.000531 ± 7.8e-05 | – | 0.000168 ± 4.6e-05
G43U U65C | < 1e-05 | < 1e-05 | < 1e-05 | < 1e-05 | < 1e-05
A39C A42U U46G | < 1e-05 | – | – | – | –
A39C U57A C68G | < 1e-05 | – | < 1e-05 | < 1e-05 | < 1e-05
G43U G62C | < 1e-05 | < 1e-05 | < 1e-05 | < 1e-05 | < 1e-05
G40U C58U | < 1e-05 | – | – | – | –
G41A A48G G63C C70G | < 1e-05 | – | – | – | –
A39U U55A | 0.000396 ± 9.4e-05 | 0.00146 ± 0.00024 | 0.0142 ± 0.0033 | 0.0376 ± 0.0091 | 0.00564 ± 0.001
G37A C61G | < 1e-05 | – | – | < 1e-05 | < 1e-05
G41C G43U C70A | < 1e-05 | – | < 1e-05 | – | –
A42G U46G | 0.000254 ± 6.6e-05 | 0.000694 ± 0.00017 | 0.0074 ± 0.0015 | 0.0115 ± 0.0033 | 0.00167 ± 0.00038
G44U C68G | < 1e-05 | < 1e-05 | – | < 1e-05 | < 1e-05
A42G U47A | 0.000848 ± 0.00018 | 0.00279 ± 0.0011 | 0.0269 ± 0.0085 | 0.00752 ± 0.0028 | 0.00967 ± 0.0013
A42G U47G | 0.000293 ± 6.2e-05 | – | – | – | –
G38A G40C G59C | < 1e-05 | – | – | – | –
A39C A52U C71U | < 1e-05 | – | – | – | –
A42C C68A | < 1e-05 | < 1e-05 | < 1e-05 | < 1e-05 | < 1e-05
